These results are taken from patent US10485854B2, “Method of reducing biofilms” (Lysando AG, priority 2010, dated 2019).

The test system of assay [1] is biofilm of the Acinetobacter baumannii strain DSMZ30007. The experiment in a line: Biofilm reduction, crystal violet assay. The settings on record: 25 μg/well, 12 h; compared to the endolysin OBP.
In assay [2] the test system is biofilm of the Pseudomonas aeruginosa strains 2572 and 2573. The experiment in a line: Biofilm reduction, crystal violet assay. The following applies: 25 μg/well, 12 h; compared to the endolysin OBP.
The test system of assay [3] is different exponential growing Gram-negative species. The experiment in a line: Anti-Gram-negative spectrum, overall statement on all species of Example 7. In kind it is cell-based.

B1: PKOBPgpLYS: fusion protein SEQ ID NO: 61: endolysin OBPgpLYS (SEQ ID NO: 7) with peptide SEQ ID NO: 11 (protein)
chain: MGSKRKKRKKRKKNSEKNASIIMSIQRTLASLSLYGGRIDGLFGEKCRGAIILMLNKVYPNFSTNKLPSNTYEAESVFTFLQTALAGVGLYTITIDGKWGGTSQGAIDALVKSYRQITEAERAGSTLPLGLATVMSKHMSIEQLRAMLPTDRQGYAEVYIDPLNETMDIFEINTPLRIAHFMAQILHETACFKYTEELASGKAYEGRADLGNTRPGDGPLFKGRGLLQITGRLNYVKCQVYLREKLKDPTFDITSSVTCAQQLSESPLLAALASGYFWRFIKPKLNETADKDDIYWVSVYVNGYAKQANPYYPNRDKEPNHMKERVQMLAVTKKALGIV
modifications: PKOBPgpLYS
As for B1, the “reduction of biofilm (crystal violet, absorption 590 nm)” value in assay [1] and in assay [2] was “massive reduction” throughout. Also, the “effect with EDTA on the activity” value in assay [3] is “clear synergistic effect”. Besides, the “effect compared to unmodified OBPgpLYS” value in assay [3] (all bacterial species tested, both in the absence as the presence of 0.5 mM EDTA) is “added effect”.
